# Reference: PubChem BioAssay (Tox21)
# Several values for one entry are separate records, joined by “and”; a condition that tells them apart may be missing. Identical values can stand only once. Inconclusive results, whose numbers are uncertain, are shown with a selection of clear calls. For some of these results: Potencies of inconclusive entries are doubtful fits and often do not repeat. Activity calls are given as the source filed them. Unless noted, calls come from the whole dose curve; as a rule, active = well fitted curve in the direction sought with a large enough effect in the repeat runs; inconclusive = weak or mixed curves; inactive = no such curve, though single readings can be large; an effect the other way counts as inactive or inconclusive.
# What was measured:
# [1] = qHTS assay for small molecule agonists of the p53 signaling pathway (AID 651631; calls by dose curve; note: nearly all actives have a fitted effect of over 15% in size; note: potency is the fitted concentration of half-maximal effect); conditions: HCT-116 p53RE-bla reporter, beta-lactamase FRET ratio, 16 h; activation: at 73.3 µM (top of the series) unless noted
# Summary of the method: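 Agonist mode screen using a stably integrated beta-lactamase gene under p53 response elements in HCT-116 cells. Compound exposure lasts 16 h at 37 °C; fluorescence intensity is measured following 2 h FRET substrate loading.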
# [2] = qHTS assay for small molecule disruptors of the mitochondrial membrane potential (AID 720635); conditions: HepG2 mitochondrial membrane potential, Mito-MPS dye ratio; ratio activity, negative = MMP loss: at 83.2 µM (top of the series) unless noted; note: potency is the fitted concentration of half-maximal effect
# Summary of the method: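 Mitochondrial membrane potential tracked with Mito-MPS dye, red aggregates (ex 540/em 590 nm) against green monomers (ex 490/em 535 nm). Compound treatment 1 hr at 37C, dye 30 min in HepG2.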
# [3] = qHTS assay to identify small molecule antagonists of the glucocorticoid receptor (GR) signaling pathway - cell viability counter screen (AID 720693); conditions: GR-bla HeLa viability, CellTiter-Glo luminescence, 18 h, with 5 nM dexamethasone present; viability change, negative = cytotoxic: at 58.5 µM (top of the series); note: nearly all actives have a fitted effect of over 55% in size
# [4] = molecular target: Glucocorticoid receptor (Homo sapiens) (UniProt P04150); assay: qHTS assay to identify small molecule antagonists of the glucocorticoid receptor (GR) signaling pathway (AID 720692; active = well fitted inhibition curve with a large enough effect in the signal ratio in the repeat runs, not every such curve was filed as active; inconclusive = weak or mixed curves, or effect the other way; inactive = no such curve, though single readings can be large or run the other way; the % refers to the signal ratio; note: potency is the fitted concentration of half-maximal effect); conditions: GR-bla HeLa, beta-lactamase FRET ratio, dexamethasone-stimulated, 18 h; activity change, negative = inhibition: at 58.5 µM (top of the series) unless noted
# Summary of the method: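 GR-bla HeLa cells (beta-lactamase reporter under glucocorticoid response element) were pre-plated 4 h at 37 C, treated with compounds plus 5 nM dexamethasone (final) for 18 h, then read by LiveBLAzer B/G FRET fluorescence after 2 h.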
# [5] = molecular target: Glucocorticoid receptor (Homo sapiens) (UniProt P04150); assay: qHTS assay to identify small molecule agonists of the glucocorticoid receptor (GR) signaling pathway (AID 720691; active = well fitted activation curve with a large enough effect in the signal ratio in the repeat runs, not every such curve was filed as active; inconclusive = weak or mixed curves, or effect the other way; inactive = no such curve, though single readings can be large or run the other way; the % refers to the signal ratio); conditions: GR-bla HeLa, beta-lactamase reporter ratio, 18 h; activation: at 62.4 µM (top of the series) unless noted
# Summary of the method: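 GR-bla HeLa cells (beta-lactamase reporter under glucocorticoid response element) were plated 4 h at 37 C/5% CO2, given compounds in DMSO, and incubated 18 h at 37 C. LiveBLAzer B/G FRET substrate was added for 2 h at room temperature, then fluorescence intensity read.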
# % is set by controls: 0 for no effect and ±100 for the full control effect; tags give direction and shape of the fitted curve or compound fluorescence and quenching.
# Chain of UniProt P04150 (P04150 whole entry, looked up): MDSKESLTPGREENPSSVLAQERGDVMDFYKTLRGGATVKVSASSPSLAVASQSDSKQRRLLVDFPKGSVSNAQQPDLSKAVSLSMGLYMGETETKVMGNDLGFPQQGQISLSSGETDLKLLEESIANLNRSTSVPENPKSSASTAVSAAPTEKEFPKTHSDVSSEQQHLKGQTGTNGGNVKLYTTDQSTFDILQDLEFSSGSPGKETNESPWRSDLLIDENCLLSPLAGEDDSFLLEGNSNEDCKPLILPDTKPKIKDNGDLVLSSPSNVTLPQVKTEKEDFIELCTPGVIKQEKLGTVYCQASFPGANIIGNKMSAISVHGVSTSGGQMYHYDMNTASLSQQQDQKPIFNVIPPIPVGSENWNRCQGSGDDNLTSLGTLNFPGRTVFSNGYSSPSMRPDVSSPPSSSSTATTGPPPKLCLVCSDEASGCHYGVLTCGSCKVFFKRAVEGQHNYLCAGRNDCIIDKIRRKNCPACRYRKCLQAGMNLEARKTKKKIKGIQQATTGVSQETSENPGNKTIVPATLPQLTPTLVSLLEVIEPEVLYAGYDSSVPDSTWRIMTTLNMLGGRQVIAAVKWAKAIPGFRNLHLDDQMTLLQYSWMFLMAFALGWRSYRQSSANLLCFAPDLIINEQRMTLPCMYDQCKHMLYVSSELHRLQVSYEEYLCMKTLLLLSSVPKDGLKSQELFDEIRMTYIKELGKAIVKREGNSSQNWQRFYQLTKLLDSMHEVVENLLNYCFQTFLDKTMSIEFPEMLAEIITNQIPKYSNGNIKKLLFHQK
structure (smiles),measurement,setting,value
Nc1ccc(C(=O)O)cc1,Potency,[1],inactive
same,"ratio activity, negative = MMP loss",[2],inconclusive: 5.8%
same,Potency,[3],inactive
O=C(c1ccc(F)cc1)C1CCN(CCn2c(=O)[nH]c3ccccc3c2=O)CC1,Potency,[1],"inconclusive: 13.3 µM [rising, single point]"
same,"ratio activity, negative = MMP loss",[2],inconclusive: -9.04%
same,"activity change, negative = inhibition",[4],inconclusive: 15.3%
CCCC[P+](C)(CCCC)CCCC,activation,[1],inconclusive: 5.99% [at 95.1 µM]
same,Potency,[2],active: 13.9 µM
same,"activity change, negative = inhibition",[4],inconclusive: -1.26% [at 78.9 µM]
Cc1c(C(=O)NN2CCCCC2)nn(-c2ccc(Cl)cc2Cl)c1-c1ccc(Cl)cc1,Potency,[1],"inconclusive: 21.1 µM [cytotoxic, partial curve]"
same,Potency,[2],active: 23.7 µM
same,Potency,[4],"inconclusive: 16.9 µM [rising, partial curve, poor fit]"
CN(C)C(=O)Nc1ccc(Oc2ccc(Cl)cc2)cc1,Potency,[1],"inconclusive: 61.1 µM [falling, single point]"
same,activation,[5],inconclusive: -12.8%
same,Potency,[4],"inconclusive: 27.5 µM [rising, partial curve, poor fit]"
CC(C)COC(=O)c1ccc(O)cc1,Potency,[1],inconclusive: 76.9 µM
same,Potency,[2],active: 12.2 µM
same,"activity change, negative = inhibition",[4],inconclusive: -8.02%
same,Potency,[3],inactive
CC(C)=CCOc1ccc(/C=C/C(=O)c2ccc(OCC=C(C)C)cc2OCC(=O)O)cc1,Potency,[1],active: 13.3 µM
same,Potency,[2],active: 23.7 µM
same,Potency,[4],active: 7.56 µM
Oc1c(Cl)cc(Cl)c(Cl)c1Cl,Potency,[1],active: 16.9 µM
same,Potency,[2],active: 11.9 µM and active: 19.3 µM
same,Potency,[4],"inconclusive: 42.7 µM [cytotoxic, partial curve, poor fit] and active: 49 µM"
